Experimental data: PMC4336329 (PLoS ONE, 2015)
Among all 310,000 compounds or so, about 2,200 (0.71%) showed an effect of 50% or more. Effects have a minus sign here. The list shows a part of the results.

These compounds were tested against human ether-à-go-go-related gene (hERG) potassium channel (human, UniProt Q12809) (assay: primary screen, population patch clamp on CHO cells stably expressing hERG).
human ether-à-go-go-related gene (hERG) potassium channel, sequence (Q12809 whole entry, looked up): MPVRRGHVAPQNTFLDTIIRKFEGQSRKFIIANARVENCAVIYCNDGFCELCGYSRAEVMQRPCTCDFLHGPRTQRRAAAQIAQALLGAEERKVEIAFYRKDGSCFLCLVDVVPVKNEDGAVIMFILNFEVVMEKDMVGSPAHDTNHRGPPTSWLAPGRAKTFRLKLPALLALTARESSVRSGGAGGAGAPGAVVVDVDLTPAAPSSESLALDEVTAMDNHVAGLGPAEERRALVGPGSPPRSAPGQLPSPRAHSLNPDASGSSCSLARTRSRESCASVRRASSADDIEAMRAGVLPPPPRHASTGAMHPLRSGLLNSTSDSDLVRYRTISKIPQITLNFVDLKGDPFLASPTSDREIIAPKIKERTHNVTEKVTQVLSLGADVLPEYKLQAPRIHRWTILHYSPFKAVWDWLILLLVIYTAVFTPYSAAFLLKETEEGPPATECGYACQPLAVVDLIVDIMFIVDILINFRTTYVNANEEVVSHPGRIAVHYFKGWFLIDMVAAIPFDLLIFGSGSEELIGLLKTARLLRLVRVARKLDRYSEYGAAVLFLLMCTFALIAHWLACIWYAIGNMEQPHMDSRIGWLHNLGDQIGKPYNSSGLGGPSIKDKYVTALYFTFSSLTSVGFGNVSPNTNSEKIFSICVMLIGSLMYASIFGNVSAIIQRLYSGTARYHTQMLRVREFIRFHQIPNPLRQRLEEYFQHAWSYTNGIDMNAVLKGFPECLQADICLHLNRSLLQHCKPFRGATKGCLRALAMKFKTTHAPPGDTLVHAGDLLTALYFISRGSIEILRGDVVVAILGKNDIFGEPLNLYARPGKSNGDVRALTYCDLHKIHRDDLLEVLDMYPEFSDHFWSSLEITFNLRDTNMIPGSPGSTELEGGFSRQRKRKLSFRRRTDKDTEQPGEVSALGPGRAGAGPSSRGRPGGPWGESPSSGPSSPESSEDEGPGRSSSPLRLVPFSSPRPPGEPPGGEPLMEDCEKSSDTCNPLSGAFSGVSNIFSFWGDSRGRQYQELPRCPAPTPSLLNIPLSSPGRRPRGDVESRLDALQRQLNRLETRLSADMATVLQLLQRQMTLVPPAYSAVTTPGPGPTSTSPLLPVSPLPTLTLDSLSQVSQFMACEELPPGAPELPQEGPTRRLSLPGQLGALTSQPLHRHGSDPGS
In the case of CN(C)c1cccc(C(=O)OCCNC(=O)c2cccc(S(=O)(=O)N3CCOCC3)c2)c1, the “hERG current change (%, negative = inhibition) at 1uM” value is reported as 6.31%.
With CC(C)NCCCOc1ccc(C(C)(C)c2ccccc2)cc1.O=C(O)C(=O)O the “hERG current change (%, negative = inhibition) at 1uM” value was 19.5%.
For CCOc1ccc(NC(=NCc2ccc3c(c2)OCO3)SC2CC(=O)N(c3ccc(C(=O)O)cc3)C2=O)cc1 (stereo not shown), the “hERG current change (%, negative = inhibition) at 1uM” value was 10.8%.
For Cc1cn([C@H]2C[C@H](N=[N+]=[N-])[C@@H](CO)O2)c(=O)[nH]c1=O, the “hERG current change (%, negative = inhibition) at 1uM” value was 10.4%.
For CC(C)NC(=O)CSc1ccccc1C(=O)NCc1ccc2c(c1)OCO2, the “hERG current change (%, negative = inhibition) at 1uM” value was 10.1%.
CCOc1cc(/C=C2\C(=O)ON=C2c2ccccc2)cc(Br)c1O was tested, and the “hERG current change (%, negative = inhibition) at 1uM” value was 10.4%.
In the case of COc1ccc2nc(NC(=O)CN3CCOCC3)sc2c1, the “hERG current change (%, negative = inhibition) at 1uM” value is reported as 2.84%.
With COc1ccc(-c2coc3cc(O)cc(O)c3c2=O)cc1OC the “hERG current change (%, negative = inhibition) at 1uM” value was 17.1%.
With CC(=O)N/N=C(\C)c1cccc(NC(=O)c2cccs2)c1 the “hERG current change (%, negative = inhibition) at 1uM” value was 12.8%.
With O=C(NCc1ccccc1)c1cc(=O)c2ccccc2o1 the “hERG current change (%, negative = inhibition) at 1uM” value was 18.1%.
In the case of COc1ccc(NC(=O)COc2ccc(C(=O)OCC(=O)N(C(C)C)C(C)C)cc2OC)cc1, the “hERG current change (%, negative = inhibition) at 1uM” value is reported as 8.95%.
With CCCCc1ccc(-c2csc(/C(C#N)=C\c3ccco3)n2)cc1 the “hERG current change (%, negative = inhibition) at 1uM” value was 3.31%.
COc1ccc([C@H]2CC(=O)C=C(c3cc(Cl)ccc3OC)C2)cc1 was tested, and the “hERG current change (%, negative = inhibition) at 1uM” value was 16.5%.
With COc1ccc(C(=O)NCC(=O)N/N=C/c2ccc(C)o2)cc1OC the “hERG current change (%, negative = inhibition) at 1uM” value was 10.1%.
For Fc1cccc(C2NC(=S)NC3=C2N2CCC3CC2)c1 (stereo not shown), the “hERG current change (%, negative = inhibition) at 1uM” value was 1.79%.
COc1ccc(NC(=O)CSc2nnc(CNC(=O)COc3ccc(Cl)cc3)o2)c(OC)c1 was tested, and the “hERG current change (%, negative = inhibition) at 1uM” value was -3.05%.
In the case of COc1ccc(C(=O)NNC(=O)C(=O)NC2CCCCC2)cc1, the “hERG current change (%, negative = inhibition) at 1uM” value is reported as 4.11%.
O=C(CSc1n[nH]c(=O)[nH]c1=O)N/N=C/c1ccccc1 was tested, and the “hERG current change (%, negative = inhibition) at 1uM” value was 6.79%.
COc1ccc(CNC(=O)c2nnn(CC(=O)Nc3cc(C)cc(C)c3)c2N)cc1 was tested, and the “hERG current change (%, negative = inhibition) at 1uM” value was 18%.
With Cc1c(OCC(=O)NC(Cc2ccc(Cl)cc2)C(=O)O)ccc2c(-c3ccccc3)cc(=O)oc12 (stereo not shown) the “hERG current change (%, negative = inhibition) at 1uM” value was 1.02%.
For N#Cc1ccc(C(=O)Nc2cccc3cccnc23)c(F)c1, the “hERG current change (%, negative = inhibition) at 1uM” value was 13.9%.
In the case of Cc1ccc(/C=C/C(=O)O)cc1S(=O)(=O)NCCCC(=O)O, the “hERG current change (%, negative = inhibition) at 1uM” value is reported as 2.96%.
For COc1ccc(-c2nc(CS(=O)(=O)CC(=O)Nc3cccc(C(C)=O)c3)c(C)o2)cc1, the “hERG current change (%, negative = inhibition) at 1uM” value was 7.52%.
With CC(C)C(=O)NC(=S)Nc1ccccc1C(=O)NC1CCCCC1 the “hERG current change (%, negative = inhibition) at 1uM” value was 10.5%.
In the case of Cc1ccc(NC(=O)N2CCC(c3ccccc3)C2)cc1C (stereo not shown), the “hERG current change (%, negative = inhibition) at 1uM” value is reported as 0.412%.
With Cc1ccc(N2CCN(CCCCN3C(=O)C4CCCN4C3=O)CC2)cc1.Cl (stereo not shown) the “hERG current change (%, negative = inhibition) at 1uM” value was -3.91%.
In the case of COc1ccc(S(=O)(=O)N2CCOC2CNC(=O)C(=O)NCC(C)C)cc1OC (stereo not shown), the “hERG current change (%, negative = inhibition) at 1uM” value is reported as 12.6%.
For COc1ccccc1C(=O)N(C)c1nnc(-c2ccccc2)s1, the “hERG current change (%, negative = inhibition) at 1uM” value was 9.26%.
Cc1onc(-c2c(Cl)cccc2Cl)c1C(=O)NCc1ccc(S(N)(=O)=O)cc1 was tested, and the “hERG current change (%, negative = inhibition) at 1uM” value was 11.4%.
With O=C(CSc1nnc(COc2ccc(Br)cc2)o1)N1CCOCC1 the “hERG current change (%, negative = inhibition) at 1uM” value was -0.41%.
For Cc1cccc(N2CN(Cc3ccco3)CNC2=S)c1C, the “hERG current change (%, negative = inhibition) at 1uM” value was 2.74%.
For CC(=O)Nc1cccc(NC(=O)Nc2cccc(F)c2)c1, the “hERG current change (%, negative = inhibition) at 1uM” value was 7.66%.
With Cc1ccc(S(=O)(=O)Nc2nc(C)cc(-n3nc(C)cc3C)n2)cc1 the “hERG current change (%, negative = inhibition) at 1uM” value was 7.23%.
In the case of Cc1c(CCC(=O)NCC(=O)NCC(=O)O)c(=O)oc2cc3oc4c(c3cc12)CCCC4, the “hERG current change (%, negative = inhibition) at 1uM” value is reported as 10.4%.
In the case of CCOc1ccc(CC2S/C(=N/c3ccccn3)NC2=O)cc1 (stereo not shown), the “hERG current change (%, negative = inhibition) at 1uM” value is reported as 4.6%.
For COc1ccc(C(=O)Nc2cc3c(cc2C#N)OCO3)cc1S(=O)(=O)N1CCN(C)CC1, the “hERG current change (%, negative = inhibition) at 1uM” value was 13.2%.
With CC1(C)OC(=O)C(=NNc2ccccc2C(=O)O)C(=O)O1 the “hERG current change (%, negative = inhibition) at 1uM” value was 1.73%.
In the case of COc1cc(-n2c(N)c(C(=O)NCc3ccco3)c3nc4ccccc4nc32)cc(OC)c1OC, the “hERG current change (%, negative = inhibition) at 1uM” value is reported as 15.3%.
For NC(=O)COC(=O)CCCc1c[nH]c2ccccc12, the “hERG current change (%, negative = inhibition) at 1uM” value was 8.35%.
With Cc1oc2cc3oc(=O)c(CCC(=O)NCCCN4CCOCC4)c(C)c3cc2c1C the “hERG current change (%, negative = inhibition) at 1uM” value was 9.17%.
For CN(CC(=O)Nc1ccccc1C(F)(F)F)C(=O)c1ccc(N2C(=O)CCC2=O)cc1, the “hERG current change (%, negative = inhibition) at 1uM” value was 1.56%.
O=C(COC(=O)CCC1CCCC1)Nc1ccccc1OC(F)F was tested, and the “hERG current change (%, negative = inhibition) at 1uM” value was 9.16%.
In the case of Cc1cccc(-n2c(N)c(C(=O)N3CCN(C)CC3)sc2=S)c1, the “hERG current change (%, negative = inhibition) at 1uM” value is reported as 5.92%.
